Some of the results follow.

The target in this assay is T1, OsWOX13 (Oryza sativa, UniProt Q5QMM3 1-267).
T1 sequence: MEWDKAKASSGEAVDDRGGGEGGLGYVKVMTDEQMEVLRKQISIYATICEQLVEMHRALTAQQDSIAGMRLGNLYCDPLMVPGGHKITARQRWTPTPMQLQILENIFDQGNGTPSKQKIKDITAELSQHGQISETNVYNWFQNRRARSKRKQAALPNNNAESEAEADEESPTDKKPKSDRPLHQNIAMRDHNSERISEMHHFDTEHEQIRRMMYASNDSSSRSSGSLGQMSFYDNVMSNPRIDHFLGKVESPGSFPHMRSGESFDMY
In words: protein-binding microarray (RPBM); PBS, 2% BSA, 51.3 ng/ul salmon testes DNA, 50 uM zinc acetate, 200 nM TF, 25 C, 1 h; high values mean tight binding. As to conditions: protein: recombinant; tags: N-terminal polyhistidine and DsRed monomer fusion (pET32a); label: CyDye5-dUTP incorporated in the synthesized complementary strand; 3' TTTTT single-stranded linker to array surface; dsDNA, one strand shown. Put shortly:
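The binding signal for each feature is its fluorescence intensity in arbitrary units. An Axon 4000B scanner was used to read a custom Agilent array that had been made double-stranded with Cy5-dUTP primer extension, blocked with 2% BSA, incubated at 25 °C for 1 h with 200 nM protein in PBS, 2% BSA, salmon testes DNA and 50 µM zinc acetate, and washed. The protein was an N-terminal polyhistidine–DsRed transcription factor fusion from E. coli BL21-CodonPlus, purified on Ni–NTA.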
With “ATCGCAATCAGGGGTGGAGACTGGAGAGAGCAGCATTCAACGGAGTCACCTAGTGCAG”, the binding signal was 8630 fluorescence intensity (a.u.).
The result for “AATTTTGATTGACAGGGAAAGAAGAATAGGAAGTTCTTCTCGGAGTCACCTAGTGCAG” reads 35500 fluorescence intensity (a.u.); that for “GTTTTAAATTACGTGTTTTAGGTTTGTCCTAAGTCAAATACGGAGTCACCTAGTGCAG”, 6220 fluorescence intensity (a.u.); that for “CGGAGTTGTTAATTATACATAGTTGAGTGATCGCTAGCTCCGGAGTCACCTAGTGCAG”, 8830 fluorescence intensity (a.u.).
The figure for “ATTGGTTTCGTTAAATTTAACATTAAATATATTTTGATAACGGAGTCACCTAGTGCAG” is 6430 fluorescence intensity (a.u.).
The result for “TATCATTATTTACCGATTAATTTATACTGGATTATATTGTCGGAGTCACCTAGTGCAG” reads 16500 fluorescence intensity (a.u.); that for “GTAATGACCGTTTGATTGAACCACAGGAATTGGATGAGAGCGGAGTCACCTAGTGCAG”, 38800 fluorescence intensity (a.u.); that for “AATTAATTAACGTGTGTGCTTGCACAGCAGCCGACGTGTTCGGAGTCACCTAGTGCAG”, 17700 fluorescence intensity (a.u.).
“AATGACCCCAATTTATTTGGTAAATTTACTAACCTGAGCGCGGAGTCACCTAGTGCAG”: the binding signal is 7560 fluorescence intensity (a.u.).
The figure for “AAGTAATTAAACCTAATCAATCATCAAGCCATATATACATCGGAGTCACCTAGTGCAG” is 21700 fluorescence intensity (a.u.); for “TATTGATAGTTGACTGTCTAAACGTTTAAATGTTGTTACCCGGAGTCACCTAGTGCAG” it is 22600 fluorescence intensity (a.u.); for “TCTTGATGGACAAAGCTAGGGTTGTAGTAGGCTTGTAGCCCGGAGTCACCTAGTGCAG” it is 32700 fluorescence intensity (a.u.).
“GTGTTTATGCCTCATCACTAATTAGAATCTTAATTTCTCTCGGAGTCACCTAGTGCAG”: the binding signal is 4710 fluorescence intensity (a.u.).
The result for “ATCTAATTAGTTAAGAAGACATTGGTATTCAAAGTTTAAACGGAGTCACCTAGTGCAG” reads 6530 fluorescence intensity (a.u.).
As for “ACGTTGATTTATCATGATGTTAACACTTGCTGAGTTAGGACGGAGTCACCTAGTGCAG”, the binding signal is 39200 fluorescence intensity (a.u.).
The figure for “ATGAATTAGATTAGATGTATATTTGAGGGAGTTAAAGTGGCGGAGTCACCTAGTGCAG” is 20800 fluorescence intensity (a.u.); for “GTGACAGATTTATCACTCTGTTTTCTGTCACTCTGAGGCTCGGAGTCACCTAGTGCAG” it is 28300 fluorescence intensity (a.u.).
The figure for “TAGCTACTAATTAATTGTTCCGTGCAAGTTGGAGTAACGCCGGAGTCACCTAGTGCAG” is 27800 fluorescence intensity (a.u.); for “AGTCCATGATTAGCCATAAATGCTACAGTAACCTATATGTCGGAGTCACCTAGTGCAG” it is 13800 fluorescence intensity (a.u.).
The figure for “AGAAATAAATGAGTCTTTCAAGCAATCATCTCAAGCAAGGCGGAGTCACCTAGTGCAG” is 5630 fluorescence intensity (a.u.); for “CCTCTGACTGACCTGTGGGCCCGTGCTGTCATTCCAATCTCGGAGTCACCTAGTGCAG” it is 6880 fluorescence intensity (a.u.); for “CACGCTGACTCAACCAGATTGATAATAGTCAACTCGTCACCGGAGTCACCTAGTGCAG” it is 18900 fluorescence intensity (a.u.).
As for “GCTTAATTAATTAAGTCCATGGCTCGATCGAGAGCCAGTCCGGAGTCACCTAGTGCAG”, the binding signal is 38400 fluorescence intensity (a.u.).
Regarding “TTGTGATAATTTTCCACGCTATTGTTACATCAAATTGAAACGGAGTCACCTAGTGCAG”, the binding signal is 5730 fluorescence intensity (a.u.).
The figure for “TGCATCTATTGATAATTTAAAATTTTGAGATTTGGCTGTACGGAGTCACCTAGTGCAG” is 6590 fluorescence intensity (a.u.); for “CCTTTATTAATTATCCAAATGTCATAAATAATTGGGTTGTCGGAGTCACCTAGTGCAG” it is 27900 fluorescence intensity (a.u.).
Take “AAGAAAATTTAAAACAATTGATTACATACTAAATTAATATCGGAGTCACCTAGTGCAG”: the binding signal is 9840 fluorescence intensity (a.u.).
The figure for “CGCTGTCACATCAAATATTTAAACATATGCATATAGTATTCGGAGTCACCTAGTGCAG” is 3550 fluorescence intensity (a.u.).
The result for “GGGATTGGTATTAGCATATTAGAAAGCTATTGGAGATGCTCGGAGTCACCTAGTGCAG” reads 8390 fluorescence intensity (a.u.); that for “TAAATGATTTGGAGTTAGTATTGGGCTATATTATTAAACTCGGAGTCACCTAGTGCAG”, 23000 fluorescence intensity (a.u.).
The figure for “CCAGATTGACCAACCGCTCTAGCATTGTTCTGCACATGAGCGGAGTCACCTAGTGCAG” is 35200 fluorescence intensity (a.u.); for “GCGGGTGAATTAACTGAAAATCAATCCTGAGTATGTACGTCGGAGTCACCTAGTGCAG” it is 9100 fluorescence intensity (a.u.); for “CATGATTGGACCAAAGAAATGCAGATTCAAACACTCAACACGGAGTCACCTAGTGCAG” it is 35300 fluorescence intensity (a.u.).
For “TTATTGTAAAAGAGATTGATGAAGTTATGTGTCCTTCCATCGGAGTCACCTAGTGCAG”, the binding signal is 8620 fluorescence intensity (a.u.).
The result for “GGATCTTGTTCTAATTATCATCTTATTAGAATCCATCCATCGGAGTCACCTAGTGCAG” reads 4800 fluorescence intensity (a.u.); that for “ATTAAGTGAATCAAAATTTATAACAGTTATAACTGATACACGGAGTCACCTAGTGCAG”, 5930 fluorescence intensity (a.u.); that for “GGTCTCCGTCCAAGTCAATTAGTCAAAATTATGCATCTAGCGGAGTCACCTAGTGCAG”, 10100 fluorescence intensity (a.u.).
The result for “AGAACAATTAACAGTTAACAGAAGCCAAGAAATGAAATGGCGGAGTCACCTAGTGCAG” reads 17700 fluorescence intensity (a.u.); that for “CCAATTCAGTCATCCGTTTCCGATTTTGTTTCATGCAAATCGGAGTCACCTAGTGCAG”, 3280 fluorescence intensity (a.u.).
With “ATAAATACTTAATTAATCATATAATAAGAGAGACTTTATTCGGAGTCACCTAGTGCAG”, the binding signal is 12000 fluorescence intensity (a.u.).
The figure for “TTCTGCGCTGTGATTGGTTGGAGCAGCTGCGCGCGGATCGCGGAGTCACCTAGTGCAG” is 24600 fluorescence intensity (a.u.); for “CTTTGATTCGGCCTGTCAGCTGATGTTTGGTTCTTCCAAACGGAGTCACCTAGTGCAG” it is 3210 fluorescence intensity (a.u.).

For the origin of these results see paper PMC7819943, “Rice protein-binding microarrays: a tool to detect cis-acting elements near promoter regions in rice”.
